The text below walks through data of the supplement of paper PMC7266297.

SMILES strings stand for the structures. Where a name gives a salt, the structure may show the parent alone. The list shows a part of the results. Most values come without repeats; read them as rough.

The test system of one experiment is KB-3-1. The experiment in a line: growth inhibition relative to DMSO control (SRB); cervical cancer cells: KB-3-1 is the parent and KB-V1 overexpresses MDR1; SRB is the sulforhodamine B stain; higher = more growth inhibition. The settings on record: 1 µM; 72 h.
Another experiment concerns KB-V1. The description is as above. The following applies: 1 µM; 72 h.
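Note: Read-out is SRB optical density at 490 nm, with the control being wells given 0.5% DMSO vehicle, and compound added one day after cells were plated.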

For the molecule `CC(C=CC(=O)NO)=CC(C)C(=O)c1ccc(N(C)C)cc1` (configuration not stated) [Trichostatin A (TSA)], the results for the growth inhibition in the experiment with KB-3-1 and in the experiment on KB-V1 were 96.8% and 97.7%, respectively.

In the case of `C[C@@H]1C[C@H]2[C@@H]3CCC4=CC(=O)C=C[C@]4(C)[C@@]3(F)[C@@H](O)C[C@]2(C)[C@@]1(O)C(=O)CO` [Dexamethasone (DHAP)], the growth inhibition was 30.3% in the experiment on KB-3-1 and 46.8% with KB-V1.

`N#CC(=C(/N)Sc1ccccc1N)/C(C#N)=C(\N)Sc1ccccc1N`: the growth inhibition in the experiment with KB-3-1 is 19.7%; in the experiment with KB-V1, 31.5%.

Turning to `Nc1ncn([C@@H]2O[C@H](CO)[C@@H](O)[C@H]2O)c(=O)n1` [Azacitidine], the growth inhibition in the experiment with KB-3-1 came to 63.7%; with KB-V1, 31.4%.

As to `Nc1ncnc2n[nH]c(Nc3ccc(F)cc3)c12`, the growth inhibition in the experiment with KB-3-1 stood at 56.1%; in the experiment on KB-V1, 1.85%.

`O=C(O)c1cccnc1Nc1cccc(C(F)(F)F)c1` [Niflumic acid]: the growth inhibition was less than 0% with KB-3-1 and 3.17% with KB-V1.

`COc1cc2c(cc1-c1c(C)noc1C)ncc1[nH]c(=O)n([C@H](C)c3ccccn3)c12`: the growth inhibition in the experiment with KB-3-1 was determined as 53.1%; in the experiment on KB-V1, 67.6%.

In the case of `COc1cc(-c2ncn(/C=C\C(=O)OC(C)C)n2)cc(C(F)(F)F)c1`, the values for the growth inhibition in the experiment with KB-3-1 and with KB-V1 were 80.1% and 76.1%, respectively.

For `C[C@]12CC[C@H](O)CC1=CC[C@@H]1[C@@H]2CC[C@]2(C)C(n3cnc4ccccc43)=CC[C@@H]12` [Galeterone], the growth inhibition was found to be 20.5% in the experiment with KB-3-1 and 11.9% with KB-V1.

For `O=C(/C=C/c1cccc(S(=O)(=O)Nc2ccccc2)c1)NO` [Belinostat (PXD101)], the growth inhibition in the experiment with KB-3-1 is 83.2%; in the experiment on KB-V1 it was 85.8%.

Regarding `CC(C)[C@H](O)C(=O)N[C@@H](C)C(=O)N[C@@H]1C(=O)N(C)CCc2ccccc21`, the growth inhibition with KB-3-1 came out at 29.3%; in the experiment on KB-V1, 15.3%.

On to `NC(=O)c1cccc(-c2cccc(OC(=O)NC3CCCCC3)c2)c1`, for which the results for the growth inhibition with KB-3-1 and with KB-V1 were 24.2% and less than 0%, respectively.

Turning to `CN(C)CCc1c[nH]c2ccc(Cn3cncn3)cc12` [Rizatriptan Benzoate], the growth inhibition in the experiment on KB-3-1 was found to be 27.1%; in the experiment with KB-V1, 14.1%.

Turning to `COc1cccc2cc(-c3nc([C@H]4CC[C@H](C(=O)O)CC4)n4ncnc(N)c34)[nH]c12`, the growth inhibition amounted to 16.9% in the experiment with KB-3-1 and 27.4% with KB-V1.

As to `CC[C@H]1OC(=O)[C@H](C)[C@@H](O[C@H]2C[C@@](C)(OC)[C@@H](O)[C@H](C)O2)[C@H](C)[C@@H](O[C@@H]2O[C@H](C)C[C@H](N(C)C)[C@H]2O)[C@](C)(O)C[C@@H](C)CN(C)[C@H](C)[C@@H](O)[C@]1(C)O` [Azithromycin], the growth inhibition in the experiment on KB-3-1 came to 49.8%; with KB-V1, 27%.

As to `Cc1ccc(C(=O)Cn2c3c(sc2=N)CCCC3)cc1` [Pifithrin-α (PFTα)], the growth inhibition in the experiment with KB-3-1 was less than 0%; in the experiment with KB-V1, 9.02%.

On to `C#C[C@]1(OC(C)=O)CC[C@H]2[C@@H]3CCC4=C[C@@H](OC(C)=O)CC[C@@H]4[C@H]3CC[C@@]21C` [Ethynodiol diacetate], for which the growth inhibition in the experiment with KB-3-1 was less than 0%; with KB-V1 it was 8.71%.

In the case of `COc1ccc2c(c1)c(CC(=O)OCC(=O)O)c(C)n2C(=O)c1ccc(Cl)cc1` [Acemetacin], the growth inhibition in the experiment on KB-3-1 was determined as 24.2%; in the experiment on KB-V1 it was 1.06%.

Regarding `Nc1ccc(C(=O)Nc2cccc(-c3nc(N4CCOCC4)c4oc5ncccc5c4n3)c2)cn1`, the growth inhibition in the experiment on KB-3-1 stood at 70.7%; in the experiment with KB-V1, 66.9%.

With `Cc1ccc(-c2c(-c3nn(C)c4ncnc(N5CC[C@H](N6CCCCC6)C5)c34)cnn2C)cc1`, the results for the growth inhibition in the experiment on KB-3-1 and with KB-V1 were 0.562% and 41.7%, respectively.

Consider `COC(=O)[C@H](c1ccccc1Cl)N1CCc2sccc2C1` [Clopidogrel], for which the growth inhibition with KB-3-1 was 13.2%; in the experiment on KB-V1, 37.2%.

`C[C@@H](Oc1cc(-c2cnn(C3CCNCC3)c2)cnc1N)c1c(Cl)ccc(F)c1Cl`: the growth inhibition is 84.2% in the experiment on KB-3-1 and 70.5% in the experiment with KB-V1.

On to `O=C(c1ccc(C(=O)N2CCC(N3CCCC3)CC2)c(Nc2ccccc2)c1)N1CCC(N2CCCC2)CC1`, for which the growth inhibition was less than 0% in the experiment with KB-3-1 and 4.8% in the experiment with KB-V1.

Consider `O=C(O)Cn1nnc(-c2cc(N3CCC(Oc4cc(F)ccc4Br)CC3)no2)n1`, for which the growth inhibition with KB-3-1 turned out to be 28.7%; in the experiment on KB-V1, 42.6%.

For `CCCCOc1c(C(=O)c2c(F)cc(C)cc2F)c[nH]c2nncc1-2`, the figures for the growth inhibition in the experiment on KB-3-1 and with KB-V1 were 81.6% and 52.9%, respectively.

Consider `CC(C)(C)OC(=O)N[C@H]1CCCCC/C=C\[C@@H]2C[C@@]2(C(=O)NS(=O)(=O)C2CC2)NC(=O)[C@@H]2C[C@@H](OC(=O)N3Cc4cccc(F)c4C3)CN2C1=O` [Danoprevir (ITMN-191)], for which the figures for the growth inhibition in the experiment with KB-3-1 and in the experiment on KB-V1 were 31.3% and 37.3%, respectively.

Take `CN1CCC(=C2c3ccccc3CC(=O)c3sccc32)CC1` [Ketotifen Fumarate]: the growth inhibition amounted to 55.4% in the experiment with KB-3-1 and 9.56% in the experiment with KB-V1.

As for `O=C(c1cccc(Cl)c1F)N1CCN(Cc2cccc(Nc3nccs3)n2)CC1`, the values for the growth inhibition in the experiment on KB-3-1 and with KB-V1 were 95.3% and 84.8%, respectively.

Consider `COc1cc(Br)c(Nc2nc(-c3c(C)nc4ncccn34)cs2)c(Br)c1`, for which the growth inhibition in the experiment with KB-3-1 came out at 63%; with KB-V1, 5.56%.

For the molecule `CN(C)C/C=C/C(=O)Nc1cc2c(Nc3ccc(F)c(Cl)c3)ncnc2cc1O[C@H]1CCOC1` [Afatinib (BIBW2992)], the growth inhibition in the experiment on KB-3-1 was determined as 91.2%; with KB-V1, 73.2%.

As to `O=c1cc(N2CCOCC2)oc2c(-c3cccc4c3sc3ccccc34)cccc12`, the growth inhibition in the experiment with KB-3-1 was less than 0%; in the experiment on KB-V1 it was 0.495%.
